A lower IC50 marks a more sensitive line; a fit beyond the top or the lowest dose is shown as a bound at that dose. The AUC spans the tested range (256-fold, ending at the top dose) of the same fit; values near 1 show little effect. For some of these results: The top dose, if marked as inferred, was derived from the fitted curves, not read from the paper.
Columns and labels:
Assay in all cases: Viability of human cancer cell lines after 72 h of drug (GDSC screen)
Erlotinib = compound: C#Cc1cccc(Nc2ncnc3cc(OCCOC)c(OCCOC)cc23)c1 [Erlotinib]; details: top dose 2 µM
Experimental: (§1)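 Human cancer cell lines in 384-well plates, medium with 10% serum, drug for 72 h over a 256-fold dose range (nine 2-fold or five 4-fold steps up to the top dose). Adherent lines were fixed and stained with the nucleic acid dye Syto60, suspension lines read with resazurin; signal relative to control wells, capped at 0 and 100%. One two-parameter sigmoid per drug and line, fitted in a mixed model over all curves with the slope shared within a line.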

Vinorelbine = compound: CCC1=C[C@@H]2CN(C1)Cc1c([nH]c3ccccc13)[C@@](C(=O)OC)(c1cc3c(cc1OC)N(C)[C@H]1[C@@](O)(C(=O)OC)[C@H](OC(C)=O)[C@]4(CC)C=CCN5CC[C@]31[C@@H]54)C2 [Vinorelbine]; details: top dose 0.064 µM; top dose inferred
Experimental: as §1

QL-XI-92 = compound: C=CC(=O)Nc1cc(NC(=O)c2ccc(C)c(NC(=O)c3ccno3)c2)cc(C(F)(F)F)c1 [QL-XI-92]; details: top dose 10.24 µM; top dose inferred
Experimental: as §1

XL-184 = compound: COc1cc2nccc(Oc3ccc(NC(=O)C4(C(=O)Nc5ccc(F)cc5)CC4)cc3)c2cc1OC [XL-184]; details: top dose 5.12 µM; top dose inferred
Experimental: as §1

WHI-P97 = compound: COc1cc2ncnc(Nc3cc(Br)c(O)c(Br)c3)c2cc1OC [WHI-P97]; details: top dose 10.24 µM; top dose inferred
Experimental: as §1

Phenformin = compound: N=C(N)NC(=N)NCCc1ccccc1 [Phenformin]; details: top dose 4000 µM; top dose inferred
Experimental: as §1

S-Trityl-L-cysteine = compound: N[C@@H](CSC(c1ccccc1)(c1ccccc1)c1ccccc1)C(=O)O [S-Trityl-L-cysteine]; details: top dose 5.12 µM; top dose inferred
Experimental: as §1

AG-014699 = compound: CNCc1ccc(-c2[nH]c3cc(F)cc4c3c2CCNC4=O)cc1 [AG-014699]; details: top dose 5 µM; top dose inferred
Experimental: as §1

Gefitinib = compound: COc1cc2ncnc(Nc3ccc(F)c(Cl)c3)c2cc1OCCCN1CCOCC1 [Gefitinib]; details: top dose 0.5 µM
Experimental: as §1

EHT 1864 = compound: O=c1cc(CN2CCOCC2)occ1OCCCCCSc1ccnc2cc(C(F)(F)F)ccc12 [EHT 1864]; details: top dose 10 µM; top dose inferred
Experimental: as §1

NU-7441 = compound: O=c1cc(N2CCOCC2)oc2c(-c3cccc4c3sc3ccccc34)cccc12 [NU-7441]; details: top dose 2 µM; top dose inferred
Experimental: as §1

Cell Line	AUC (Erlotinib)	IC50 (Erlotinib) [µM]	AUC (Vinorelbine)	IC50 (Vinorelbine) [µM]	AUC (QL-XI-92)	IC50 (QL-XI-92) [µM]	AUC (XL-184)	IC50 (XL-184) [µM]	AUC (WHI-P97)	IC50 (WHI-P97) [µM]	AUC (Phenformin)	IC50 (Phenformin) [µM]	AUC (S-Trityl-L-cysteine)	IC50 (S-Trityl-L-cysteine) [µM]	AUC (AG-014699)	IC50 (AG-014699) [µM]	AUC (Gefitinib)	IC50 (Gefitinib) [µM]	AUC (EHT 1864)	IC50 (EHT 1864) [µM]	AUC (NU-7441)	IC50 (NU-7441) [µM]
ECC12 (stomach, suspension)	0.471	0.102	0.339	0.00126	–	–	–	–	–	–	–	–	–	–	–	–	–	–	–	–	–	–
HCC1599 (breast, suspension)	0.976	> 2	0.578	0.00676	0.939	> 10.2	0.925	> 5.12	0.954	> 10.2	0.555	362	0.72	1.49	–	–	–	–	–	–	–	–
HCC2998 (large intestine, adherent)	0.987	> 2	0.563	0.00592	0.984	> 10.2	0.972	> 5.12	0.987	> 10.2	0.746	1240	–	–	0.944	> 5	0.986	> 0.5	0.967	> 10	–	–
KP-N-YS (neuroblastoma, adherent)	0.981	> 2	0.744	0.0225	0.762	4.19	0.879	> 5.12	0.962	> 10.2	0.975	> 4000	0.706	1.34	–	–	–	–	–	–	–	–
LOXIMVI (melanoma, semi-adherent)	0.99	> 2	0.841	0.0375	0.981	> 10.2	0.959	> 5.12	0.987	> 10.2	0.685	770	–	–	0.988	> 5	–	–	0.987	> 10	0.943	> 2
NCI-H128 (small cell lung carcinoma, suspension)	0.98	> 2	–	–	–	–	–	–	–	–	–	–	0.979	> 5.12	–	–	–	–	–	–	–	–
NCI-H322M (lung adenocarcinoma, suspension)	0.872	> 2	0.986	> 0.064	0.977	> 10.2	0.977	> 5.12	0.758	4.36	0.894	> 4000	–	–	0.987	> 5	0.908	> 0.5	0.973	> 10	0.921	> 2
OVCAR-4 (ovary, adherent)	0.809	1.76	0.428	0.0023	0.972	> 10.2	0.924	> 5.12	0.959	> 10.2	0.681	1040	–	–	0.974	> 5	–	–	0.936	> 10	0.929	> 2
RC-K8 (B-cell lymphoma, suspension)	0.993	> 2	0.976	> 0.064	0.993	> 10.2	0.989	> 5.12	0.993	> 10.2	0.703	852	–	–	0.993	> 5	0.989	> 0.5	0.977	> 10	0.989	> 2
SK-MEL-2 (melanoma, adherent)	0.987	> 2	0.615	0.00842	0.985	> 10.2	0.987	> 5.12	0.985	> 10.2	0.894	> 4000	–	–	0.986	> 5	0.985	> 0.5	0.987	> 10	0.977	> 2
SUP-B15 (lymphoblastic leukaemia, suspension)	–	–	0.45	0.00293	0.488	0.596	0.762	1.75	0.901	> 10.2	0.307	74	0.582	0.532	0.796	2.23	0.983	> 0.5	0.934	> 10	0.919	> 2
SUP-HD1 (Hodgkin lymphoma, suspension)	–	–	0.733	0.0178	0.806	4.9	0.944	> 5.12	0.972	> 10.2	0.804	1890	0.833	3.1	0.985	> 5	0.964	> 0.5	0.98	> 10	0.937	> 2
SW684 (fibrosarcoma, adherent)	–	–	0.74	0.0273	0.981	> 10.2	0.983	> 5.12	0.983	> 10.2	0.906	> 4000	0.946	> 5.12	0.967	> 5	0.983	> 0.5	0.918	> 10	0.937	> 2
SW954 (urogenital system, adherent)	–	–	0.536	0.00504	0.922	> 10.2	0.78	2.13	0.873	10.1	0.3	67.9	0.58	0.533	0.874	4.97	0.899	> 0.5	0.963	> 10	0.981	> 2
SW962 (urogenital system, adherent)	–	–	0.765	0.0291	0.97	> 10.2	0.91	> 5.12	0.937	> 10.2	0.668	828	0.69	1.25	0.946	> 5	0.953	> 0.5	0.98	> 10	0.849	> 2
SW982 (soft tissue, adherent)	–	–	0.564	0.00601	0.832	6.8	0.92	> 5.12	0.96	> 10.2	0.971	> 4000	0.674	0.997	0.892	> 5	0.978	> 0.5	0.98	> 10	0.929	> 2
TE-9 (oesophagus, adherent)	–	–	0.301	–	0.986	> 10.2	0.983	> 5.12	0.973	> 10.2	0.864	3720	0.671	0.977	0.934	> 5	0.962	> 0.5	0.933	> 10	0.959	> 2
TE-11 (oesophagus, adherent)	–	–	0.562	0.00582	0.99	> 10.2	0.971	> 5.12	0.99	> 10.2	0.878	3440	0.575	0.503	0.958	> 5	0.967	> 0.5	0.955	> 10	0.981	> 2
TGBC1TKB (biliary tract, adherent)	–	–	0.848	0.047	0.985	> 10.2	0.973	> 5.12	0.984	> 10.2	0.971	> 4000	0.807	2.6	0.98	> 5	0.976	> 0.5	0.976	> 10	0.975	> 2
TGW (neuroblastoma, adherent)	–	–	0.925	> 0.064	0.99	> 10.2	0.92	> 5.12	0.926	> 10.2	0.988	> 4000	0.742	1.4	0.977	> 5	0.992	> 0.5	0.99	> 10	0.982	> 2
TUR (B-cell lymphoma, suspension)	–	–	0.569	0.00608	0.962	> 10.2	0.923	> 5.12	0.969	> 10.2	0.569	379	0.987	> 5.12	0.979	> 5	0.979	> 0.5	0.932	> 10	0.987	> 2
U-698-M (B-cell leukaemia, suspension)	–	–	0.634	0.0094	0.965	> 10.2	0.912	> 5.12	0.903	> 10.2	0.537	316	0.96	> 5.12	0.987	> 5	0.983	> 0.5	0.901	> 10	0.97	> 2
UACC-257 (melanoma, adherent)	0.973	> 2	0.76	0.0277	0.97	> 10.2	0.916	> 5.12	0.978	> 10.2	0.725	1290	–	–	0.892	> 5	–	–	0.843	9.79	–	–
VA-ES-BJ (soft tissue, adherent)	–	–	0.47	0.00329	0.982	> 10.2	0.959	> 5.12	0.985	> 10.2	0.947	> 4000	0.655	0.887	0.956	> 5	0.956	> 0.5	0.925	> 10	0.923	> 2
VAL (B-cell lymphoma, suspension)	0.973	> 2	0.874	0.0629	0.716	2.62	0.895	> 5.12	0.904	> 10.2	0.583	421	–	–	0.978	> 5	0.98	> 0.5	0.981	> 10	0.967	> 2
VCaP (prostate, adherent)	–	–	0.664	0.0116	0.878	> 10.2	0.93	> 5.12	0.953	> 10.2	0.976	> 4000	0.816	2.97	0.987	> 5	0.987	> 0.5	0.984	> 10	0.979	> 2
WIL2-NS (lymphoid neoplasm, suspension)	–	–	0.568	0.00591	0.921	> 10.2	0.912	4.96	0.98	> 10.2	0.37	118	0.687	0.95	0.991	> 5	0.992	> 0.5	0.981	> 10	0.992	> 2
WSU-NHL (lymphoid neoplasm, suspension)	–	–	0.828	0.0331	0.989	> 10.2	0.872	3.88	0.99	> 10.2	0.754	1200	0.98	> 5.12	0.976	> 5	0.987	> 0.5	0.955	> 10	0.831	1.06
